Test results published in PubChem BioAssay AID1460 (National Center for Advancing Translational Sciences (NCATS), 2008).
Several values for one entry are separate records, joined by “and”; a condition that tells them apart may be missing. Equal entries are not always repeated. Screen size: about 270,000 compounds; about 5,800 (2.1%) were called active. This list was built around the results that the source calls inconclusive (neither active nor inactive); the mix of calls is not that of the screen. Calls come from the whole dose curve; as a rule, active = well fitted inhibition curve with a large enough effect; inconclusive = small, poorly fitted or top-dose-only effect; inactive = flat fitted curve, though single readings scatter. A potency beside an inconclusive call is a rough fit, not a confirmed value.
Note: nearly all actives have a fitted effect of over 55% in size.
Potency is the fitted concentration of half-maximal effect; tags give direction and shape of the fitted curve.

Each molecule was assayed against Microtubule-associated protein tau (Homo sapiens) (UniProt P10636) (assay: qHTS for Inhibitors of Tau Fibril Formation, Thioflavin T Binding). Conditions: recombinant tau K18 P301L, heparin-induced fibrillization, ThT fluorescence; series mostly up to 57.4 µM.
Chain of UniProt P10636 (P10636 whole entry, looked up): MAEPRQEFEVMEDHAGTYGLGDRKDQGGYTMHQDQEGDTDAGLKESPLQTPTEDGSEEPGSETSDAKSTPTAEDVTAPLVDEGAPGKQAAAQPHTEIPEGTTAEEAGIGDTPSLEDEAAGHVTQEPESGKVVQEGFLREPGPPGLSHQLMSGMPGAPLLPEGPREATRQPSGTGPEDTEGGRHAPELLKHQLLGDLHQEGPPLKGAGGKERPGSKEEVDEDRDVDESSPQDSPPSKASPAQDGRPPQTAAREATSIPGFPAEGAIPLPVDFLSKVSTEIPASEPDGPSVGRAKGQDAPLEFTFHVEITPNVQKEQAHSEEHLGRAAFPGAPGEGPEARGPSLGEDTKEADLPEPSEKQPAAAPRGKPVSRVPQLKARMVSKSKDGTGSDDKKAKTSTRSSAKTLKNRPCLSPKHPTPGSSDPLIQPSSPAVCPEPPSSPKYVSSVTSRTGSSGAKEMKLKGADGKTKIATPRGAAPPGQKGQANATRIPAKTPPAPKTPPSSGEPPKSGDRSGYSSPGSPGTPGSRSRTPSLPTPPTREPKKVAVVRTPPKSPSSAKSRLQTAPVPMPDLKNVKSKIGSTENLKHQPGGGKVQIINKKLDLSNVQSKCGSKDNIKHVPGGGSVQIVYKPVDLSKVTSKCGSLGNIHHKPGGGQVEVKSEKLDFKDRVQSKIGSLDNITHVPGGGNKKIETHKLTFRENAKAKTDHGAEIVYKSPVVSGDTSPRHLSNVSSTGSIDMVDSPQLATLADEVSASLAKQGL
How it was run: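 Using a mix of unlabeled (15 uM) and Alexa 594-labeled (0.24 uM) tau K18 P301L, heparin-triggered fibrillization over 6 hr at 37 C was scored by ThT fluorescence.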
For `CC(CNC(=O)c1ccc2c(c1)nc1n2CCCCC1)c1ccccc1` (configuration not stated), the Potency was inconclusive: 4.47 µM [inhibitor, full curve].
`C/C(=N\S(=O)(=O)c1ccc(C)cc1)N1CCN(S(=O)(=O)c2ccccc2)C1` was tested, and the Potency was “inactive”.
In the case of `Cc1cc(C)n(-c2nc(C)nc(N)n2)n1`, the Potency is reported as “inactive”.
In the case of `C=CCOC(=O)c1[nH]c2c(c1C)C(=O)CC(c1ccco1)C2` (configuration not stated), the Potency is reported as inconclusive: 10 µM [inhibitor, partial curve].
With `COc1ccc(-c2[nH]c(-c3ccc(O)cc3)nc2-c2ccccc2)cc1` the Potency was inconclusive: 39.8 µM [inhibitor, single point].
`CCCC/C=C/C(NC(=O)C(C)(C)C)c1ccccc1` (configuration not stated) was tested, and the Potency was “inactive”.
`Cc1oc(-c2ccccc2F)nc1CS(=O)(=O)CC(=O)N1CCN(c2ccccc2)CC1` was tested, and the Potency was inconclusive: 35.5 µM [inhibitor, partial curve] and inconclusive: 22.4 µM [inhibitor, single point].
With `Cc1cc(C)n(-c2ccc(C(=O)OCC(=O)Nc3ccccc3[N+](=O)[O-])cc2)n1` the Potency was inconclusive: 3.16 µM [inhibitor, full curve].
With `COc1ccccc1CNC(=O)CC(c1ccc(F)cc1)N1Cc2ccccc2C1=O` (configuration not stated) the Potency was “inactive”.
In the case of `COc1ccc(NC(=O)CCN2CCCCCC2)cc1`, the Potency is reported as inconclusive: 11.2 µM [inhibitor, partial curve].
`CCOc1ccc(NC(=O)Cn2c(=O)n(CCCC(=O)NCCc3ccc(Cl)cc3)c(=O)c3ccccc32)cc1` was tested, and the Potency was “inactive”.
For `CCc1cc2c(=O)n(CCC(C)C)c(=S)[nH]c2s1`, the Potency was “inactive”.
With `Cc1cccc(CNc2cc(-c3cccc(C#N)c3)ncn2)c1` the Potency was “inactive”.
In the case of `CCOC(=O)c1cc2c(=O)n3ccccc3nc2n(Cc2ccco2)c1=NC(=O)c1ccccc1Br`, the Potency is reported as inconclusive: 0.0251 µM [inhibitor, full curve, poor fit].
In the case of `COC(=O)C1CCN(c2nc3ccccc3nc2C(C#N)C(=O)NCCc2ccccc2)CC1` (configuration not stated), the Potency is reported as inconclusive: 39.8 µM [inhibitor, single point].
In the case of `Cc1c(Cl)cccc1Nc1nn2c(=O)c3ccccc3nc2s1`, the Potency is reported as inconclusive: 1.26 µM [inhibitor, partial curve].
`O=C(Nc1ccc2oc(-c3cccnc3)nc2c1)c1ccc([N+](=O)[O-])o1` was tested, and the Potency was inconclusive: 1.41 µM [inhibitor, full curve].
With `CCOC(=O)c1c(NC(=O)CSc2nnc(-c3ccccc3)n2CC)sc(C(C)=O)c1C` the Potency was “inactive”.
`CCOc1ccc(OCC)c(NC(=O)CN2CCN(c3cc(C)ccc3C)CC2)c1` was tested, and the Potency was “inactive”.
With `COc1ccc(OC)c(S(=O)(=O)NCC(c2ccc(N(C)C)cc2)N2CCOCC2)c1` (configuration not stated) the Potency was inconclusive: 31.6 µM [inhibitor, single point].
For `COC(=O)c1cc(NC(=O)c2cc3c(-c4ccccc4F)nn(C)c3s2)cc(C(=O)OC)c1`, the Potency was inconclusive: 28.2 µM [activator, single point].
`Cc1noc(/C=C/c2ccccc2F)c1S(=O)(=O)N1CCC(C(=O)N(C)Cc2ccco2)CC1` was tested, and the Potency was “inactive”.
With `CCc1ccc2c(CN3CCN(S(=O)(=O)c4cccs4)CC3)cc(=O)oc2c1` the Potency was “inactive”.
For `O=C(Nc1cccc(-c2cn3c(n2)SCC3)c1)c1ccc2ccccc2n1`, the Potency was inconclusive: 5.62 µM [inhibitor, partial curve].
In the case of `CCOC(=O)/C=c1\s/c(=C\c2c(OC)ccc3ccccc23)c(=O)n1CC(=O)NCC1CCCO1` (configuration not stated), the Potency is reported as inconclusive: 15.8 µM [inhibitor, partial curve].
`Cn1c(/C(C#N)=C/c2ccc(O)cc2)nc2ccccc21` was tested, and the Potency was inconclusive: 22.4 µM [inhibitor, partial curve].
In the case of `CC1(C)CC(=O)C(c2c[nH]c3ccccc23)C(=O)C1`, the Potency is reported as inconclusive: 22.4 µM [inhibitor, single point].
For `CCOc1ccc(NC(=O)Cn2nc(-c3ccncc3)ccc2=O)cc1`, the Potency was “inactive”.
In the case of `Cc1noc(-c2ccc(NCc3ccccc3)c([N+](=O)[O-])c2)n1`, the Potency is reported as “inactive”.
For `Nc1nc(CN2CCN(c3ccccc3)CC2)nc(N2CCCc3ccccc32)n1`, the Potency was inconclusive: 31.6 µM [inhibitor, single point].
In the case of `O=C(NCC1CCCO1)c1ccc(COc2ccc(Cl)cc2)cc1` (configuration not stated), the Potency is reported as “inactive”.
With `COC(=O)/C(=N\Nc1ccc(Cl)cc1)Sc1nnc(-c2ccc(OC)cc2)n1C` the Potency was “inactive”.
With `COc1ccc2nc(NC(=O)c3cc(=O)c4ccccc4o3)sc2c1` the Potency was active: 0.891 µM.
`CNC(=O)c1nnsc1S(=O)(=O)c1ccc(Cl)cc1` was tested, and the Potency was “inactive”.
In the case of `CCOc1ccc(NC(=O)CSc2nnc(CNC(=O)c3c(F)cccc3Cl)o2)cc1`, the Potency is reported as inconclusive: 10 µM [inhibitor, partial curve, poor fit].
In the case of `Cc1cccc(OCC(O)CN2CCN(CCN3C(=O)c4cccc5cccc(c45)C3=O)CC2)c1C` (configuration not stated), the Potency is reported as inconclusive: 25.1 µM [inhibitor, partial curve].
In the case of `COc1cccc(C(=O)Nc2ccc3c(c2)C(=O)c2ccccc2C3=O)c1`, the Potency is reported as “inactive”.
In the case of `O=C1/C(=C/c2ccco2)SC(=S)N1c1cccnc1`, the Potency is reported as active: 15.8 µM.
With `CCc1ccc(NCc2cccn2-c2nnc(N3CCCCCC3)s2)cc1` the Potency was inconclusive: 12.6 µM [inhibitor, partial curve, poor fit].
In the case of `O=C(N/N=C/c1ccc(OCC(=O)N2CCCCC2)cc1)c1ccccc1O`, the Potency is reported as inconclusive: 7.94 µM [inhibitor, partial curve].
In the case of `CCOc1cc(NC(=S)NCC2CCCO2)c(OCC)cc1NC(=O)CC(C)C` (configuration not stated), the Potency is reported as “inactive”.
With `Cn1c(SCC(=O)Nc2ccc3nc(SCC(=O)NC4CC4)sc3c2)nnc1-c1ccccc1` the Potency was inconclusive: 12.6 µM [inhibitor, partial curve].
For `Cc1[nH]c2ccccc2c1/C=C(\C#N)C(=O)NCc1ccccc1`, the Potency was “inactive”.
For `COc1ccc2nc(NC(=O)C3CCCN3S(=O)(=O)c3ccc(C)cc3)sc2c1` (configuration not stated), the Potency was “inactive”.
With `CCCCCCN(CCCCCC)C(=O)Cc1c(-c2ccc(Cl)cc2)[nH]c2ccc(Cl)cc12` the Potency was “inactive”.
`Cc1cc(-c2csc(N)n2)c(C)n1Cc1ccco1` was tested, and the Potency was active: 15.8 µM.
For `CCOC(=O)CNc1nnc(SCC(=O)OCC)[nH]c1=O`, the Potency was inconclusive: 14.1 µM [inhibitor, partial curve].
